Measurements from PubChem BioAssay AID743279 (National Center for Advancing Translational Sciences (NCATS), 2014).
The campaign covered roughly 360,000 compounds. About 17,000 (4.7%) were called active. The shares of active, inactive and inconclusive entries below differ from those in the screen. No stated cut-off is given here; in the data, active means activity change below about -50%; inconclusive means mostly about -30% to -49%; inactive means weaker than that.

test: qHTS for Inhibitors of Inflammasome Signaling: IL-1-beta AlphaLISA Primary Screen; conditions: THP-1 LPS/ATP IL-1B secretion, 16 h; at 57.5 µM, stronger effect = lower value
How it was run: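 THP-1 cells pretreated 1 hr with compounds (up to 57.5 uM final), then stimulated with LPS (250 ng/mL final) plus ATP (1.25 mM final); secreted IL-1B measured by AlphaLISA after 16 hr, decreased signal indicating inhibition.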
On the % scale 0 is the no-effect control and ±100 the full control effect.

Activity change, inconclusive:
Cc1nc(CNC(=O)c2cc(COc3ccc(F)cc3Cl)on2)cs1 -31.3%
Cc1noc(C)c1COC(=O)c1cc(C)n(-c2ccccc2)c1C -46.1%
COC(=O)C1=C(C)N(Cc2ccccc2)C(=NCc2cccc(Cl)c2)N[C@H]1c1ccccc1 -45.6%
CCC1CSC(Nc2ccc(C(=O)/C=C/c3ccc(Oc4ccccc4)cc3)cc2)=N1 (stereo not given) -44.8%
COc1ccccc1NC(=O)c1cc2cc(Br)ccc2cc1O -38.5%
COc1cc(N/C(N)=N/c2nc(C)cc(C)n2)c(OC)cc1Cl -33.2%
Cc1ccc2nc(C)cc(Nc3ccc4c(c3)OCCO4)c2c1 -41.6%
CCN(c1ccc(C)cc1C)S(=O)(=O)c1nnc(NC(=O)c2ccco2)s1 -43.2%
Cn1c(SCC(=O)N2c3ccccc3Sc3ccccc32)nc2ccccc21 -31.2%
CCc1ccc(C(=O)Nc2cccnc2Oc2ccc(Cl)cc2)cc1 -35.5%
CN(C(=O)c1cccc(NC(=O)Cc2ccc(NC(=O)C3CCCN(C(=O)C4CC4)C3)cc2)c1)C1CCCC1 (stereo not given) -37.2%
COc1cc(/C=C2/NC(=O)N(c3cccc(Cl)c3)C2=O)ccc1O -35%
CCOC(=O)c1c(C)[nH]c(C(=O)OCC(=O)NC2(C#N)CCCCC2)c1C -32.9%
CC1CCCC(C)N1CC(O)COc1ccc(Cl)cc1 (stereo not given) -44.4%
CCCc1ccc(-c2ccc(F)c(N)c2)nc1 -35.9%
CC(C)CC(N)c1csc(NC(=O)Nc2ccccc2-c2ccccc2)n1 (stereo not given) -40.1%
CC1(C)CC(=O)C(C2=NC3(CCCCCC3)Cc3ccccc32)=C(O)C1 -39.3%
CN(C)c1ccc(N/C(N)=N/c2nc(C(F)(F)F)cc(C(F)(F)F)n2)cc1 -34.9%
CN(C)c1ccc(/C=C/c2nnnn2-c2ccccc2)cc1 -38.3%
COc1ccc(NC(=O)CSc2nc3ccccc3c(=O)n2CCCO)cn1 -36.3%
CCCCCCSc1ccc(-c2nc3cc(C)ccn3c2NC2CCCCC2)cc1 -43.1%
Nc1nc(CSC(=S)N2CCCCC2)nc(Nc2ccccc2)n1 -46.8%
CCCc1ccc(C2C3=C(CC(C)(C)CC3=O)NC3=C2C(=O)c2ccccc23)cc1 (stereo not given) -47.6%
Cc1cc(NC(=O)Cc2ccccc2)ccc1NC(=O)c1cccs1 -35.5%
COc1ccc(-c2cc3ccccc3n2CC(O)Cn2nc(C)cc2C)cc1 (stereo not given) -32.8%
Cc1sc2nc(SCC(=O)N(CCO)CCO)n(C3CCCCC3)c(=O)c2c1C -38.2%
COc1ccc(/C=C/c2nc(N)nc(-c3ccccc3O)n2)cc1OC -49.1%
Cc1sc(NC(=O)c2cccs2)nc1-c1ccccc1 -44.2%
CSc1ccccc1OCc1cc(C(=O)N(C)Cc2nonc2C)no1 -42.9%
COc1ccc(NC(=O)Nc2nc(C(N)C3CCCCC3)cs2)cc1 (stereo not given) -46%
c1ccc(-c2ccccc2OCCN2CCCC2)cc1 -36.1%

Activity change, inactive:
CCOc1ccc(-n2c(SCC(=O)N3CCC(C(=O)O)CC3)nc3ccccc3c2=O)cc1 5.67%
CC1(c2nnnn2-c2ccc3c(c2)OCCO3)CCC(=O)N1CCOc1ccccc1 (stereo not given) 23%
Clc1ccc(-c2nnc(COc3ncnc4ccccc34)o2)cc1 -13.1%
O=C1c2ccccc2C(Nc2cccnc2)N1Cc1ccc2c(c1)OCO2 (stereo not given) -0.325%
O=C(NCc1cccnc1)Nc1cccc(Cl)c1Cl -7.43%
CNC(=S)NNC(=O)c1ccc2c(c1)OCO2 0.485%
O=C(Nc1c2c(nn1-c1ccc(F)cc1)CS(=O)C2)c1ccc(Br)o1 (stereo not given) 5.94%
CN(c1ccccc1)S(=O)(=O)c1ccc(Cl)c(C(=O)NC2=NCCS2)c1 -15%
NNC(=O)CN1CCN(c2ncc(C(F)(F)F)cc2Cl)CC1 28.3%
CCn1cc([N+](=O)[O-])c(C(=O)Nc2cc(C)on2)n1 11.5%
Cc1c(C(=O)OCC(=O)Nc2ccc(C(N)=O)cc2)cccc1[N+](=O)[O-] 19.7%
COc1ccccc1CN(C(=O)CNC(=O)c1ccco1)C(C(=O)NCC1CCCO1)c1ccccc1 (stereo not given) 9.38%
CC(NCc1cccs1)c1ccccc1 (stereo not given) 7.59%
O=C(c1ccc(Cn2cc(Br)cn2)o1)N1N=C(C(F)F)CC1(O)C(F)F (stereo not given) -3.14%
Cc1ccc(C([O-])=C(C(=S)NCc2ccccc2)[n+]2cccc(CO)c2)cc1[N+](=O)[O-] 12.1%
O=c1c(Cl)c(N2CCCCC2)cnn1-c1nc2ccccc2[nH]1 -15.2%
COC(=O)N/N=C/c1cn(CCOc2ccccc2OC)c2ccccc12 14.6%

Activity change, active:
COc1cccc(/C=N/NC(=O)c2oc3nc(-c4ccccc4)cc(-c4ccco4)c3c2N)c1 -57.9%
CCN(CC)CCCNc1nc2cc(OC)c(OC)cc2c2nc(-c3ccccc3)nn12 -88.1%
CSC1SCC2C(=O)N(C)C(C(C)C)C(=O)OCC(NC(=O)c3cnc4ccccc4n3)C(=O)NC(C)C(=O)N(C)C1C(=O)N(C)C(C(C)C)C(=O)OCC(NC(=O)c1cnc3ccccc3n1)C(=O)NC(C)C(=O)N2C (stereo not given) -116%
O=C(CCn1c(=O)oc2ccccc21)N1CCN(C(c2ccccc2)c2ccccc2)CC1 -64.6%
CS(=O)(=O)N1CCc2cc(-c3csc(NC(=O)Cc4cccs4)n3)ccc21 -65.4%
Cc1ccccc1OCCC(=O)OCC(=O)Nc1ccc(N2CCOCC2)cc1 -62.3%
CC1(C)N=C(SCC(=O)Nc2ccc(Cl)cc2)C(c2ccccc2)=N1 -87.1%
